The text below walks through data of article PMC10668032.

This is one part of the list. At the low end of the ranking, values are background and their order means little.

The target in the experiment is SIX1 homeodomain (reference allele) (UniProt Q15475). Nature of the experiment: universal protein binding microarray. Conditions: Universal all-10-mer PBM (8x60K, AMADID 030236), 300 nM GST-tagged protein, Alexa Fluor 488 anti-GST; buffer, salt, pH and temperature not stated; high values mean tight binding; most listed sequences are background and not binding sites; double strand, one strand shown.
With CATTGATA, the binding signal stood at 0.391 E-score. On to AAAGTAAA, for which the binding signal was -0.255 E-score. Then ACTGAACT, with -0.167 E-score. As for ACCGATTC, the figure is 0.029 E-score; as for TAACAGCA, -0.172 E-score; as for AATACACA, 0.169 E-score. As to GCAACCGC, the binding signal is -0.255 E-score. Take TGATCGCA: the binding signal amounted to 0.171 E-score. As to ACCTGGTC, the binding signal is -0.0391 E-score. Turning to ATAATCAC, the binding signal was 0.0901 E-score. As for AGGGGCTC, the binding signal worked out at 0.0609 E-score. Then CATCTGAC, with 0.152 E-score; and ACAAGTTG, with -0.0877 E-score; and GGTCTAAC, with 0.0232 E-score.

In the case of GACCAGGC, the binding signal was -0.108 E-score. With CTCATACA, the binding signal worked out at 0.0921 E-score.

Take GCTCGAGC: the binding signal stood at 0.12 E-score. As for AGCCCATG, the figure is -0.146 E-score. Regarding AGATTAGA, the binding signal stood at 0.00566 E-score.

With ACTGCAAC, the binding signal was -0.116 E-score. Then ATCGCTCC, with 0.0652 E-score; and AATGCAAA, with -0.035 E-score; and ACAGCGCT, with 0.0172 E-score. Take CGTCTAAG: the binding signal came out at 0.193 E-score. As for ATCAAGAG, the figure is 0.139 E-score. As for CTCATAGC, the figure is -0.136 E-score.

As for AATGATCC, the binding signal was found to be 0.424 E-score. Consider ACTCGGAT, for which the binding signal was determined as 0.38 E-score. As for GTGGCTGA, the figure is 0.0821 E-score. With ACTTCCAA, the binding signal is -0.155 E-score. Regarding GCACTAAA, the binding signal was -0.139 E-score.

Consider GAATTGTA, for which the binding signal is -0.0626 E-score. Then GGGAGAAA, with -0.173 E-score. As for GCGCTCGA, the binding signal was -0.192 E-score. As for CTCGGGCC, the figure is -0.0621 E-score; as for AGGTATAT, 0.357 E-score.

With ATCAGAAC, the binding signal is 0.0329 E-score. On to CACCATGC, for which the binding signal was 0.113 E-score. AGATATCG: the binding signal is 0.434 E-score. With GAAGCAAC, the binding signal was -0.2 E-score. Take GACCAGCA: the binding signal was -0.244 E-score. As to TAGGGCCA, the binding signal is -0.229 E-score. In the case of ATGGAACG, the binding signal is -0.232 E-score. Then CATCACCC, with 0.115 E-score.

With AAAATCTA, the binding signal was -0.0612 E-score. Regarding AGTCAGGA, the binding signal is -0.026 E-score. Then AAACGCAC, with -3.5e-05 E-score. In the case of AAAGCGGA, the binding signal amounted to 0.101 E-score. Then AATTTATC, with 0.00878 E-score; and TAAGAATA, with -0.0539 E-score; and CGACTAGC, with -0.0674 E-score. Take GCCATCGC: the binding signal was determined as 0.0318 E-score. Then GACCCACA, with -0.043 E-score; and ACAACGCT, with -0.246 E-score; and AAATATAC, with 0.237 E-score. AGAGAGAA: the binding signal is -0.135 E-score.

In the case of TCATTGAA, the binding signal stood at 0.0929 E-score. For ATTGCACC, the binding signal stood at 0.00256 E-score.

For ATAAGCCC, the binding signal was -0.0855 E-score. Then CGGGGTAG, with 0.22 E-score.

With GCTAAACC, the binding signal is -0.0327 E-score.

With CCCACCCC, the binding signal is 0.2 E-score. With ACATAGTA, the binding signal stood at 0.205 E-score. With CCGGTCGA, the binding signal is -0.156 E-score. As for AAGTGACA, the figure is 0.0438 E-score. Consider AACTCGGA, for which the binding signal was -0.128 E-score. Turning to ATCCTCGC, the binding signal is 0.279 E-score. With ATACTGTG, the binding signal worked out at 0.226 E-score.

As for CCTAGCCA, the binding signal was -0.0901 E-score.

For GATGTAGA, the binding signal was 0.0155 E-score. AAATCACT: the binding signal is -0.171 E-score. In the case of GGCAACCC, the binding signal is -0.135 E-score. CAATGTGC: the binding signal is -0.0955 E-score.

With CTGATACA, the binding signal came to 0.404 E-score. Then GAGAGCGA, with 0.113 E-score; and AAGCGTCA, with -0.185 E-score. Then ACTCGCAG, with -0.134 E-score.

As to GAGCCTGC, the binding signal was -0.00779 E-score. Then ACCAACGT, with -0.0812 E-score; and AGCGCAAA, with -0.124 E-score. As to GAGGGGGC, the binding signal was -0.211 E-score. Then AAAGTGGC, with -0.216 E-score.

For CAGATGTC, the binding signal was -0.13 E-score. For the sequence CCAGTTGC, the binding signal is -0.0802 E-score. Then GGGAACCC, with 0.19 E-score. As for GAAACCTA, the figure is 0.0398 E-score. Turning to GGTAAAGA, the binding signal came to 0.0345 E-score.

On to ATAGCGTC, for which the binding signal was 0.0199 E-score. In the case of GTGTGCCA, the binding signal is -0.177 E-score. Consider GCTATAGC, for which the binding signal was -0.0047 E-score. With GAGTACGA, the binding signal was 0.049 E-score. As for GGGCTGTA, the figure is -0.0771 E-score; as for GCCTTTCC, -0.198 E-score; as for ACTATAGG, 0.0552 E-score. Then ACAGTCAC, with -0.275 E-score. CCGCTAGC: the binding signal was -0.00511 E-score. As for ACATTCAA, the figure is -0.198 E-score; as for ATCTACAA, 0.0674 E-score. ATACCCGA: the binding signal was found to be 0.407 E-score. As for ATTACCGA, the binding signal amounted to 0.0641 E-score. Then CTGGCGAA, with -0.154 E-score; and AACGTTAA, with -0.23 E-score; and CCTATTTC, with -0.025 E-score.

Consider AAAGGTCA, for which the binding signal was -0.264 E-score. Then ACCTACAG, with 0.0234 E-score; and CCATCTTC, with -0.0562 E-score. Then CACCAAAG, with 0.15 E-score. Turning to GATAATTA, the binding signal was found to be 0.116 E-score. Then GATTCTGA, with -0.0792 E-score; and GGTGATAA, with 0.154 E-score; and ATCGGGCC, with 0.188 E-score. With GTTTACTA, the binding signal is -0.0491 E-score.

Regarding AACTCGGG, the binding signal was -0.024 E-score. As for GGGTCACA, the binding signal came out at 0.057 E-score.

Take AGACTCCG: the binding signal is -0.271 E-score. Then GTCACCGA, with -0.00109 E-score; and ACGGGAGG, with 0.0184 E-score. Then ACTTCCTC, with -0.117 E-score; and AGATGATG, with 0.107 E-score. Turning to CGAGATTA, the binding signal was 0.0713 E-score. Then GTGAATAA, with -0.153 E-score; and CTTGCGAA, with -0.112 E-score; and AATGTACC, with 0.0585 E-score. As for CCGGTAGG, the figure is -0.023 E-score; as for AACCTCAG, -0.0146 E-score. Then ACTGGTCC, with -0.162 E-score; and ATAAGTTG, with -0.0821 E-score; and TCCCCCGA, with 0.0421 E-score.

Consider CAAGAAGC, for which the binding signal is -0.126 E-score. ATCAATCA: the binding signal amounted to 0.221 E-score. As for ATGCGGCG, the figure is -0.119 E-score.

In the case of CCGCGGCC, the binding signal is 0.00162 E-score. As to GACGTTCA, the binding signal is -0.0935 E-score.

In the case of ATTGACTC, the binding signal was 0.0905 E-score.

As for ACCAAGCT, the binding signal is -0.11 E-score. As for ACCGTCCC, the figure is -0.0758 E-score; as for CTTATTGA, 0.0908 E-score. Regarding GTAGGCAC, the binding signal was -0.225 E-score.

Regarding CTTTGCTC, the binding signal was -0.267 E-score. Turning to TCCAGCAA, the binding signal was 0.107 E-score.

On to ACACGCCT, for which the binding signal is -0.0967 E-score. Then AATTAGCA, with -0.0445 E-score; and AGGAACGC, with -0.198 E-score; and CTTGCGCA, with -0.0968 E-score. For ACCATAAT, the binding signal was 0.0231 E-score. GATGGGAA: the binding signal was -0.113 E-score. As for AGGATCCG, the figure is 0.308 E-score; as for ACCGAGCT, 0.0236 E-score; as for AACGTGAT, 0.255 E-score. As for GTGGAGCA, the figure is -0.00382 E-score; as for TAGACATA, 0.01 E-score. As for GATTTGCC, the figure is -0.104 E-score; as for CTAGTAGA, 0.113 E-score; as for TCATGCCA, 0.0697 E-score. Turning to CGATTCGC, the binding signal is -0.0191 E-score.

CAGTCCTC: the binding signal was -0.193 E-score. As for CTTGACTA, the figure is -0.12 E-score; as for CCTACAGC, 0.00855 E-score. On to GAGCCGAA, for which the binding signal is -0.0759 E-score. Then AAGTCAGC, with -0.335 E-score; and ACTGGGCA, with -0.183 E-score.

For AAGACTTG, the binding signal is -0.181 E-score.

Regarding ATACTCTC, the binding signal was determined as 0.303 E-score. In the case of AGTTACAT, the binding signal is -0.166 E-score. As for AAAATAAC, the figure is -0.138 E-score; as for CAGAACAC, 0.0161 E-score. Consider CGCGTCGA, for which the binding signal was 0.0963 E-score. As for ATTTACGC, the figure is -0.286 E-score; as for ATTTGCAG, 0.0624 E-score; as for GAATTTAC, -0.171 E-score. Then ACAGGGAC, with -0.141 E-score; and ATGGGAAA, with -0.259 E-score.
